# Paper PMC4336329 (PLoS ONE, 2015)
# Out of some 310,000 compounds screened, about 2,200 (0.71%) showed an effect of 50% or more. The effect is printed as a negative number. This is one part of the list.
# Biological target: human ether-à-go-go-related gene (hERG) potassium channel (human, UniProt Q12809)
# Test: primary screen, population patch clamp on CHO cells stably expressing hERG
# Sequence of human ether-à-go-go-related gene (hERG) potassium channel (Q12809 whole entry, looked up): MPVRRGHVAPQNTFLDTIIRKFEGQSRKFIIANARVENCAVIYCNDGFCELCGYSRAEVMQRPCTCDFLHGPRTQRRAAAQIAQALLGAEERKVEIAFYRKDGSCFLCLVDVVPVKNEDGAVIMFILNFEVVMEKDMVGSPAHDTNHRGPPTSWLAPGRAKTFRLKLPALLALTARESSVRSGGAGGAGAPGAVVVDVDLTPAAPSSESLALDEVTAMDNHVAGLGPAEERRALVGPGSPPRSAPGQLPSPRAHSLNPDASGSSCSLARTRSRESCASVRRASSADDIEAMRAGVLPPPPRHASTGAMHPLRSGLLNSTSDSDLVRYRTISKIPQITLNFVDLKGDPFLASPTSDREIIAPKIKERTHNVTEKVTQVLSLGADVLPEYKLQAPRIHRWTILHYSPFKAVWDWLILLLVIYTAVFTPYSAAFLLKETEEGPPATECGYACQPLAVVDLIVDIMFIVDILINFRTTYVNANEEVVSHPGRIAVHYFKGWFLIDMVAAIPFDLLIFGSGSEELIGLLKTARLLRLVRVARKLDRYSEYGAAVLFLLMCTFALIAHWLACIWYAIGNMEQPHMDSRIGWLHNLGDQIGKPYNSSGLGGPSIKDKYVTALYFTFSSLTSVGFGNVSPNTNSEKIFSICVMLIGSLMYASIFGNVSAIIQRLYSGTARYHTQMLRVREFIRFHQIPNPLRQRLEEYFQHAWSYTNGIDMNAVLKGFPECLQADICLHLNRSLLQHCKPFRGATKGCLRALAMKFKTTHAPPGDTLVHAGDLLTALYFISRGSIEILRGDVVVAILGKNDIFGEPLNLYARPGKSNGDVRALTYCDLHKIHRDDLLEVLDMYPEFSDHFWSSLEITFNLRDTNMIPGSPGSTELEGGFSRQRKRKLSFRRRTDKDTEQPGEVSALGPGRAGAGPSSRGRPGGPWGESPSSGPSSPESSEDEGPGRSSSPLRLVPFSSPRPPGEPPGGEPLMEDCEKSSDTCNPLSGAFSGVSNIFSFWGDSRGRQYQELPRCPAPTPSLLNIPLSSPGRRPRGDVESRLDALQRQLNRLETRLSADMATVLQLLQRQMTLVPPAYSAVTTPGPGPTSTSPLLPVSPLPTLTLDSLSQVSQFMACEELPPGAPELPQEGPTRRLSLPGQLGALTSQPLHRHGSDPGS
row,Compound,"hERG current change (%, negative = inhibition) at 1uM [%]"
1,CC(C)(O)[C@H]1Cc2cc3ccc(=O)oc3cc2O1,14.7
2,C#CCOc1ccc2ccccc2c1/C=C(/C#N)c1ccc(C(=O)O)cc1,13.1
3,CCOc1ccc(OCCCC(=O)N(CC)CC(=O)Nc2c(F)cccc2F)cc1,7.12
4,CC(C)C(=O)Nc1nnc(-c2ccccc2)o1,4.79
5,CN(CC(=O)Nc1cccc(F)c1)C(=O)c1ccc(-c2ccc(Cl)cc2)o1,14.4
6,COc1ccc(N2CCN(C(=O)CNS(=O)(=O)c3ccc(C)cc3)CC2)cc1,10.6
7,CC(=O)N1CCN(Cc2nc(C(c3ccccc3)c3ccccc3)no2)CC1,17.8
8,COc1ccc(-c2nnn(CC(=O)NCCc3c[nH]c4ccccc34)n2)cc1OC,5.94
9,CNC(=O)c1ccsc1NC(=O)CCS(=O)(=O)c1ccc(F)cc1,-2.79
10,COc1ccc(C(=O)c2ccccc2Cl)cc1,-0.249
11,Cc1cc(C)cc(NC(=O)C2CCCC2)c1,18.7
12,O=C1NCCN/C1=C\C(=O)c1ccc(F)cc1,10.6
13,O=C(NC(=S)Nc1ccc(N2CCCC2)cc1)c1ccc(F)cc1,13.2
14,CCc1noc(C)c1C(=O)N(CCCOC)c1c(N)n(Cc2ccccc2)c(=O)[nH]c1=O,10.3
15,Nc1nnc(-c2ccc(Cl)c([N+](=O)[O-])c2)s1,11.3
16,COc1ccc(-c2cc(=O)n(-c3nc4ccccc4[nH]3)[nH]2)cc1,-23.9
17,Cc1cccc(-n2ncc3c2CCCC3NC(=O)CCCN2CCCCC2=O)c1C (centres unmarked),13.4
18,CC(=O)N1CCN(C(=O)c2ccc(NS(=O)(=O)c3cc(C)ccc3C)cc2)CC1,13.8
19,CC(C)[C@H](N)c1nnc(SC/C=C/c2ccccc2)o1.Cl,2.27

row,Compound,"hERG current change (%, negative = inhibition) at 1uM [%]"
1,O=[N+]([O-])c1ccc2[nH]ncc2c1,7.88
2,COc1nnc(-c2ccc(N3CCCCC3)c(NC(C)=O)c2)c2ccccc12,16.5
3,CCN1CCN(c2cc(C)c3cc(NC(=S)NCCCOC)ccc3n2)CC1,12.1
4,COc1cc2c(cc1OC)C(c1cc3cc4c(cc3[nH]c1=O)OCO4)N(C(=O)C(C)C)CC2 (centres unmarked),-0.936
5,CCCNC(=O)CSc1nnc(C)s1,0.416
6,O=C1/C(=C/c2ccc3c(c2)OCO3)Oc2cc(OCC(=O)N3CC(O)C[C@H]3C(=O)O)ccc21 (some centres unmarked),-0.626
7,O=C(Nc1ccc2snnc2c1)N1CCSCC1,12.4
8,O=C(c1ccc(Cl)s1)N1CCN(c2ncccn2)CC1,7.33
9,COc1ccc(CCN2C(=O)C3C4C=CC(C5CC45)C3C2=O)cc1OC (centres unmarked),3.53
10,CC1C(C(=O)Nc2ccccc2)CCCC1(C)C(=O)O (centres unmarked),6.34
11,CCCc1cn(S(=O)(=O)c2ccc(OC)cc2OC)nc1N,6.34
12,Fc1ccccc1CSc1nncn1NC/C=C/c1ccccc1,14.1
13,O=C(NCC1(N2CCCCC2)CCCCC1)c1cccc(NS(=O)(=O)c2ccccc2)c1,-34
14,COc1ccc(CCNC(=O)C2CCCN(c3nc4ccccc4s3)C2)cc1OC (centres unmarked),10.4
15,O=C(NC1CCCC1)C(c1ccccn1)N(C(=O)c1csnn1)c1ccccc1 (centres unmarked),15.2
16,CC(=O)/C(=N/Nc1ccccc1)Sc1nnc(CCc2ccccc2)n1-c1ccccc1,-0.859
17,CC1(C)CC(N2CCCC2)=CC(=[N+]2CCCC2)C1.[I-],2.56
18,Cc1nn(C)cc1S(=O)(=O)NC1CCCC1,1.96
19,COc1ccc(-c2noc(N3CCC(C(=O)NCCCN4CCC(C)CC4)CC3)n2)cc1,-0.816

row,Compound,"hERG current change (%, negative = inhibition) at 1uM [%]"
1,Cc1ccc(S(=O)(=O)N2CCOCC2)cc1NC(=O)COc1cccc(-n2cnnn2)c1,1.93
2,COc1ccc(NC(=O)c2ccc(S(=O)(=O)N(C)c3ccccc3)cc2)cn1,1.02
3,Cc1ccccc1C(=O)c1cccn1CC(=O)N1CCCCCC1,7.99
4,CC12CCC(C(=Nc3ccc(N=C4C(=O)C5(C)CCC4C5(C)C)cc3)C1=O)C2(C)C,8.42
5,CC(C)c1nc2sc(C(=O)O)c(N)c2c2c1CCCC2,8.77
6,CCOc1ccc(C2NC(=O)NC(C)=C2[N+](=O)[O-])cc1OC (centres unmarked),10.1
7,O=C(Nc1cccc2ncccc12)c1cccnc1,15.6
8,CCN1CCN(C(=O)NC(c2ccc(C)c(F)c2)C(Cl)Cl)CC1 (centres unmarked),4.1
9,CN(C)c1ccc(/C=C/c2ccc3ccccc3n2)cc1,17.2
10,COc1ccc(C2=NO[C@@H]3[C@@H]4C[C@@H]([C@H]5C(=O)N(c6ccc7c(c6)OCO7)C(=O)[C@@H]45)[C@H]23)cc1OC,7.53
11,O=C(Nc1ccccc1)C1C2CCCCC21 (centres unmarked),8.19
12,COC(=O)[C@@]12CCCCN1[C@H](c1ccc(SC3CCCCC3)c(OC)c1)[C@@H]1C(=O)N(C)C(=O)[C@@H]12.O=C(O)C(F)(F)F,10.3
13,CCOC(=O)N1CCc2c(sc3c2c(=O)n(Cc2ccccc2)c(=O)n3CC(=O)NCCOC)C1,15.1
14,NC(=O)C1CCN(C(=O)CCSCc2ccc(Cl)c(Cl)c2)CC1,6.63
15,CC1CCN(CCCNC(=O)C2CCC(CNS(=O)(=O)c3cccc4nsnc34)CC2)CC1 (centres unmarked),12.9
16,CC(C)COc1ccc(S(=O)(=O)n2cc(F)c(=O)[nH]c2=O)cc1,8.79
17,COc1cccc(-n2c(Cn3nc(C(F)F)cc3C(F)F)n[nH]c2=S)c1,9.61
18,CCOC(=O)C1CCN(C(=S)Nc2ccc(C)cc2)CC1,11
